About 16,000 (7.3%) of roughly 220,000 compounds were called active. The shares of active, inactive and inconclusive entries below differ from those in the screen. Calls follow the shape of the dose curve; as a rule, active = well fitted inhibition curve with a large enough effect (not every such curve was filed as active); inconclusive = small, poorly fitted or top-dose-only effect, or another doubt; inactive = no such curve, though single readings can be large or run the other way. Potencies of inconclusive entries are left out as doubtful fits.
What follows are compounds tested against Aldehyde dehydrogenase 1A1 (Homo sapiens) (UniProt P00352) (assay: qHTS Assay for Inhibitors of Aldehyde Dehydrogenase 1 (ALDH1A1)). Settings: Purified ALDH1A1, NADH fluorescence, propionaldehyde substrate; series mostly up to 75.3 µM; activity, negative = inhibition: at the top concentration.
Chain of UniProt P00352 (P00352 whole entry, looked up): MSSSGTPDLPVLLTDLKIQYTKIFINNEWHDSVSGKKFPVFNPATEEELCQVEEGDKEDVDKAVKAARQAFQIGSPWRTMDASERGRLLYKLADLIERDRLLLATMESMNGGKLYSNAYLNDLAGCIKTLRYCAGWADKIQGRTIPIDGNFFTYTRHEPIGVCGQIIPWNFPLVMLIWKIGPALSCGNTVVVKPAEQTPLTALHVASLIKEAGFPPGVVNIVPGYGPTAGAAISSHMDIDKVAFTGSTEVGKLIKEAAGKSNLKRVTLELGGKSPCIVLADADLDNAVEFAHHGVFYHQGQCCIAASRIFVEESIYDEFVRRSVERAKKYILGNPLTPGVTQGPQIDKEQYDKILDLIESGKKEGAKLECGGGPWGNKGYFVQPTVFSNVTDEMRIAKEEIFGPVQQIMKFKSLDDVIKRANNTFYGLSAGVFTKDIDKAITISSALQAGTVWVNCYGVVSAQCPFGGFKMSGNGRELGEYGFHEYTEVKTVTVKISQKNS
In the case of `CC(=O)O/N=C(/C)c1ncc(C(F)(F)F)cc1N1CCOCC1`, the Potency is reported as inconclusive [inhibitor, single point]. For `COc1ccc(C2(O)CCN(CCCCOc3ccccc3)CC2)cc1`, the Potency was inconclusive [inhibitor, partial curve]. With `Cc1ccc(NCc2ccccc2O)cc1` the “activity, negative = inhibition” value was inactive: 10.6%. In the case of `CCOC(=O)c1cccc(NC(=O)C(C)N2C(=O)c3ccccc3C2=O)c1` (stereo not drawn), the Potency is reported as inconclusive [inhibitor, single point]. `COc1cc([N+](=O)[O-])ccc1NC(=S)Nc1cc(C(=O)OC(C)C)cc(C(=O)OC(C)C)c1` was tested, and the Potency was inconclusive [inhibitor, single point]. `Cc1ccc(C)c(C(=O)N(Cc2nc(-c3ccc(Cl)cc3)no2)C(C)C)c1` was tested, and the “activity, negative = inhibition” value was inactive: 3.53%. For `COc1ccc(N2CSC3=C(C#N)C(c4cccc(OC)c4OC)CC(=O)N3C2)cc1` (stereo not drawn), the Potency was active: 12.6 µM. In the case of `COc1ccc(-c2nc(=S)[nH][nH]2)cc1OC`, the Potency is reported as inconclusive [inhibitor, single point]. In the case of `O=C(CNC(=O)c1cnccc1C(F)(F)F)c1cccc(Cl)c1`, the Potency is reported as inconclusive [inhibitor, single point]. With `CCn1ncc(Br)c1C(=O)Nc1sc2c(c1C(N)=O)CCC2` the Potency was inconclusive [inhibitor, partial curve]. With `C[C@@H](C(=O)NCc1ccc(C(F)(F)F)nc1)[C@H]1C[C@]1(C)[C@H](NC(=O)OCc1ccccc1)c1ccccc1` the Potency was inconclusive [inhibitor, partial curve]. In the case of `CCOC(=O)/C=C1\SCC(=O)N1Cc1nnc(-c2ccccc2Br)o1`, the Potency is reported as inconclusive [inhibitor, single point]. With `CC1CN(C)C(c2ccccc2)C(C)C12NC(=O)NC2=O` (stereo not drawn) the Potency was active: 7.08 µM. With `COCCNC(=O)CSc1nc2ccc(N3CCOCC3)cc2c(=O)n1Cc1ccc(OC)cc1` the Potency was inconclusive [inhibitor, partial curve]. In the case of `O=C(COC(=O)CNC(=O)C1CCCCC1)Nc1ccc(Cl)cc1F`, the “activity, negative = inhibition” value is reported as inactive: -2.34%. With `Cc1c(Cc2ccccc2)c(=O)oc2c(CN(C)C)c(O)c(Cl)cc12` the Potency was inconclusive [inhibitor, partial curve]. For `Cc1ccc(CNC(=O)CCS(=O)(=O)c2ccc(Br)s2)cc1`, the “activity, negative = inhibition” value was inactive: -15.1%. For `O=C(CCOc1ccccc1)Nc1cccc([N+](=O)[O-])c1`, the Potency was inconclusive [inhibitor, partial curve]. In the case of `Cc1cccc(NC(=S)NNC(=O)COc2ccc(Cl)cc2Cl)c1`, the Potency is reported as active: 6.31 µM. With `O=C(Cc1ccccc1)NC1CCS(=O)(=O)C1` (stereo not drawn) the “activity, negative = inhibition” value was inactive: 6.15%. In the case of `O=C(CSc1nn(-c2ccc(F)cc2)c(=S)s1)NC(=O)NCc1ccco1`, the Potency is reported as inconclusive [inhibitor, single point]. In the case of `CNC(=O)COC(=O)c1ccccc1C(=O)c1ccc(Cl)c([N+](=O)[O-])c1`, the “activity, negative = inhibition” value is reported as inactive: -0.529%. With `CC(=O)[C@]1(O)CC[C@@H]2[C@H]3C[C@@H](C)C4=CC(=O)CC[C@@]4(C)C3[C@@H](O)C[C@]21C` (stereo partly drawn) the Potency was inconclusive [inhibitor, single point]. With `COc1ccc(NC(=O)c2ccco2)cc1NC(=O)c1cc2ccccc2o1` the Potency was inconclusive [inhibitor, single point]. `COc1cc2c(C(=O)N3CCN(Cc4ccc5c(c4)OCO5)CC3)cn(C)c(=O)c2cc1OC` was tested, and the Potency was active: 2.51 µM. `CCc1onc(C)c1C(=O)Nc1cc(C)ccc1OC` was tested, and the Potency was inconclusive [inhibitor, single point]. With `O=C(Nc1cnn(Cc2ccc(Cl)cc2Cl)c1)c1noc2c1CCCC2` the Potency was active: 14.1 µM. `COc1ccc(-c2cc(=O)oc3cc(OC(C)C(=O)O)ccc23)cc1` (stereo not drawn) was tested, and the Potency was inconclusive [inhibitor, single point]. For `Cc1c(Br)c([N+](=O)[O-])nn1CCCC(=O)Nc1sc2c(c1C#N)CCC2`, the Potency was active: 10 µM. `Cc1cc2nc(C3CCN(Cc4nnnn4Cc4cccs4)CC3)[nH]c2cc1C` was tested, and the Potency was inconclusive [inhibitor, single point]. In the case of `Cc1ccc(S(=O)(=O)Oc2ccc3c(c2)O/C(=C\c2cccnc2)C3=O)cc1`, the Potency is reported as active: 11.2 µM. In the case of `C=CCn1c(SCCN2CCCC2)nc2c([nH]c3ccccc32)c1=O`, the “activity, negative = inhibition” value is reported as inactive: -10.8%. `O=C(O)/C=C/C(=O)NCc1cn(-c2ccccc2)nc1-c1cccc(Br)c1` was tested, and the “activity, negative = inhibition” value was inactive: -0.0137%. With `Cc1ccc(Nc2cc(-n3nc(C)cc3C)ncn2)c(C)c1` the Potency was inconclusive [inhibitor, partial curve]. For `Cc1ccc(NC(=O)CSc2ncc(-c3ccccc3)n2C(=O)c2ccccc2)cc1`, the Potency was inconclusive [inhibitor, full curve, poor fit]. In the case of `Cc1ccc(/C=C/C(=O)c2ccccc(=O)c2O)cc1C`, the Potency is reported as inconclusive [inhibitor, single point]. In the case of `Cc1ccc(NC(=O)NCCCc2ccccc2)cc1`, the Potency is reported as inconclusive [inhibitor, full curve]. `O=C(NC1CCCCC1)C(c1cc2c(cc1[N+](=O)[O-])OCO2)N1CCCCC1` (stereo not drawn) was tested, and the Potency was active: 28.2 µM. With `CCCCCC(=O)NC(=S)NNC(=O)c1ccc([N+](=O)[O-])cc1` the Potency was active: 14.1 µM. In the case of `CCCN=C1NC(=O)C(CC(=O)NCCc2ccccc2)S1` (stereo not drawn), the Potency is reported as active: 28.2 µM. For `COc1ccc(C(=O)NN=C(Cc2ccccc2)Cc2ccccc2)cc1OC`, the Potency was inconclusive [inhibitor, single point]. For `Cc1nn(Cc2ccccc2)c2c1C(c1ccncc1)C(C#N)=C(N)O2` (stereo not drawn), the Potency was inconclusive [inhibitor, single point]. For `Cc1sc2nc(C(C)C)nc(SCC(=O)N3c4ccccc4CC3C)c2c1C` (stereo not drawn), the “activity, negative = inhibition” value was inactive: -0.822%. In the case of `COc1cc(NC(=S)NCCC(c2ccccc2)c2ccccc2)c(OC)cc1Cl`, the Potency is reported as inconclusive [inhibitor, single point]. With `COc1cccc(C=Nc2cccc3c(=O)[nH][nH]c(=O)c23)c1O` the “activity, negative = inhibition” value was inactive: -10.2%. For `CC1C/C(=N\NC(=O)CCc2ccc(S(=O)(=O)N3CCOCC3)cc2)CC(C)(C)C1` (stereo not drawn), the Potency was inconclusive [inhibitor, single point]. For `O=C(NC(=S)Nc1ccc(S(=O)(=O)Nc2nccs2)cc1)c1cccnc1`, the Potency was inconclusive [inhibitor, single point]. With `N[C@@H](CS(=O)O)C(=O)O` the Potency was “inactive”. `Cc1ccc(-c2nc3ccccn3c2NCc2ccc3c(c2)OCO3)cc1` was tested, and the Potency was inconclusive [inhibitor, partial curve]. In the case of `O=C(NCC1CCCO1)C(c1ccccn1)N(Cc1ccccc1Cl)C(=O)CN1C(=O)c2ccccc2S1(=O)=O` (stereo not drawn), the Potency is reported as inconclusive [inhibitor, single point]. With `CC1(C)Cc2c(sc3nn[nH]c(=O)c23)CO1` the Potency was inconclusive [inhibitor, single point]. In the case of `CCn1c(Cn2nnc(-c3ccccc3)n2)nnc1SCC(=O)Nc1cccc(C)c1C`, the Potency is reported as inconclusive [inhibitor, single point]. With `CCOC(=O)c1cc(-c2ccccc2)n(CC(=O)Nc2cccc(OC)c2)c1C` the “activity, negative = inhibition” value was inactive: 9.35%. `CN(C)S(=O)(=O)c1ccccc1C#N` was tested, and the Potency was inconclusive [inhibitor, single point]. With `O=C(CC1CCCCC1)Nc1ccc(-c2ccc3nncn3n2)cc1` the Potency was inconclusive [inhibitor, single point]. In the case of `Oc1ccc(Br)cc1-c1cc(-c2ccccc2)n[nH]1`, the “activity, negative = inhibition” value is reported as inactive: 3.53%. In the case of `COCCN1Cc2cccc(C(=O)Nc3cc(C)cc(C)c3)c2C1=O`, the Potency is reported as inconclusive [inhibitor, single point]. With `CCOCCCNC(=O)c1ccc(Cn2c(=S)[nH]c3c([nH]c4ccc(OC)cc43)c2=O)cc1` the Potency was inconclusive [inhibitor, single point]. For `C=CCNC(=O)c1ccc(-n2cccc2)cc1`, the “activity, negative = inhibition” value was inactive: 5.73%. `CC/C(=N/Nc1ccccc1)c1cnnc(-c2ccccc2)n1` was tested, and the Potency was active: 10 µM. `O=C(O/N=C1\CCS(=O)(=O)c2sccc21)c1ccccc1` was tested, and the Potency was active: 12.6 µM. For `Clc1ccc(SCCN2CCNCC2)cc1`, the Potency was inconclusive [inhibitor, partial curve]. For `COc1ccccc1CSc1ncc(-c2ccc([N+](=O)[O-])cc2)[nH]1`, the Potency was active: 28.2 µM. `CC1CCc2c(sc(NC(=O)CN3CCN(C(=O)c4ccco4)CC3)c2C#N)C1` (stereo not drawn) was tested, and the Potency was inconclusive [inhibitor, partial curve]. With `CSc1ccc(C=O)cc1` the Potency was inconclusive [inhibitor, single point]. With `O=C(NCc1ccco1)c1ccc(OCC2CCCO2)cc1` (stereo not drawn) the Potency was inconclusive [inhibitor, single point]. For `CC(C)CC(NC(=O)CNC(=O)C1O[C@@H]2OC(C)(C)O[C@@H]2[C@H]2OC(C)(C)O[C@@H]12)C(=O)O` (stereo partly drawn), the “activity, negative = inhibition” value was inactive: 11.2%. `COC(=O)c1sc(N)c(C(=O)OC)c1COC(=O)c1c(C)noc1C` was tested, and the “activity, negative = inhibition” value was inactive: -10.6%. In the case of `FC(F)(F)Oc1ccc(NC(=S)NCCCN2CCOCC2)cc1`, the “activity, negative = inhibition” value is reported as inactive: 8.85%. For `CC1(C)Cc2c(sc(NC(=O)C3CC(Cl)=CCC3C(=O)O)c2C#N)CO1` (stereo not drawn), the Potency was inconclusive [inhibitor, single point]. With `COc1cccc2sc(Nc3nnc(-c4ccc(F)cc4)o3)nc12` the Potency was inconclusive [inhibitor, single point]. With `CS(=O)(=O)CCC(C(=O)OCc1ccc(Br)cc1)N1C(=O)c2ccccc2C1=O` (stereo not drawn) the “activity, negative = inhibition” value was inactive: -13.8%. In the case of `COc1ccc(S(=O)(=O)N2CCCCC2)cc1-n1cnnn1`, the Potency is reported as inconclusive [inhibitor, partial curve].

Reference: PubChem BioAssay AID1030 (National Center for Advancing Translational Sciences (NCATS), 2008)
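For activity, negative = inhibition in this document: plate controls were no enzyme wells and a reference inhibitor.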
Potency is read from the fitted curve at half-maximal effect; tags tell the direction and shape of the fitted curve.
